In the supplement of paper PMC11417369:
Some of the results follow.

System: PF3D7_0420300 AP2 domain 1 (GST-tagged)
Assay: gcPBM binding intensity (ln(normalized median fluorescence intensity)); higher = stronger DNA binding
Outline: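 GST-tagged P. falciparum DNA-binding domains, expressed in E. coli (about 25 μg on average), were applied for 1 h to an Agilent 4 × 180k array of primer-extended double-stranded 36-bp intergenic genomic probes plus negative controls. The binding buffer was 1× PBS with 1% milk, 0.2 mg/ml BSA, 0.5% salmon testes DNA and 0.03% Triton X-100. Bound protein was detected with Alexa488 anti-GST antibody and scanned at 488 nm. Binding intensity is the highest Masliner-normalised natural-log median intensity across replicate spots of either probe orientation.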

Sequence	gcPBM binding intensity (ln)
ATGTATTTATTATTTAGTACACATTATTTTCTTATA [XGTACX_site6365]	9.56
TAAACAGTATGCAACGCATGCGTTGTTATATATAAA [TGCATGCA_site232]	9.19
AAATTTTCTTTTAAGTGTACGAAATTTAGTATTTCA [XGTACX_site7819]	9.02
ATTTTTTTTTTTTTTTTTTTATTCTTAATTCATATA [CACACA_negctrl_site342]	9.35
TATATATAAATATATACACACATGAAAATAAATAAA [CACACA_site2514]	9.51
TTTTTGTTTGTTCACGACTACATTATGTCATAAATG [CACACA_negctrl_site597]	9.15
AGTAGATATAATTATAGTACTTTGATGTTTTCTTTA [XGTACX_site5038]	9.44
TTTTTTTTTAGAAAAACATGCATGTCCTAAAAATAA [TGCATGCA_site684]	8.68
ATATGATAAATTATATGTACTTAAAATATATTATAA [XGTACX_site5904]	9.05
TGGCAAAATAGGCACACACACATATACATCTATATT [CACACA_site6626]	9.97
AAAAAAAAAAAAAAAAAAAAAAAAACAATGAATTTA [GTGCAC_negctrl_site698]	9.23
GTAAATTATATAACAAATAAAAATGTACATATATAT [CACACA_negctrl_site408]	9.39
TCTTGTTATTTAAATGCATGTTGATTTTAAAAAATT [TGCATGCA_site840]	9.19
AATAAAAAGTAATAATAACGTATAATTTATTATACT [TGCATGCA_negctrl_site414]	9.14
TATACTTTATATATTTTGTATATATATTTTTTTTAT [TGCATGCA_negctrl_site530]	9.34
ATATATATAGATTGTACACACATTTATGCATATATA [CACACA_site3222]	9.57
ACGCAATATTAACAAGTGCATTATAACACATAACAT	9.29
ATAACATTCTATGTTGCACACAAAGAGAAAAATTTA [CACACA_site9322]	9.28
AGCATTTTAAAAGAAAAAAAAAAAAAAAAAAAAATA [GTGCAC_negctrl_site723]	8.96
ATCTATGTTCCTTTTACACACATAATCTTTTTTTTA [CACACA_site5468]	9.89
ATATATATATATTATACACACAAAAATATTTTGTAT [CACACA_site266]	9.43
CGTGGGAGCAGACACACACACACACGCATATTTATA [CACACA_site6290]	10.1

Sequence	gcPBM binding intensity (ln)
ATGGACAAAAAATATATACACACGAGGAAACCAACA [CACACA_site3726]	10.1
TTTTGTTTTTACGAATACTTTTTTAATTTTATTTAT [TGCATGCA_negctrl_site395]	9.05
CATGCATACTACATCTGTACACATACATTATATTTA [XGTACX_site2495]	9.56
TTAGTCGAATGATGTACACACATACAAAACATTTAT [CACACA_site6076]	9.53
ACTAATTACTATAAAACACACATATATATATATATA [CACACA_site2591]	9.36
AGAAAATATTTTGGTTGTACAGGCGATTTATATGTT [XGTACX_site7253]	9.42
AAAAAAAAAAAAAAAAAAAAAAAAAAAAGAAAAAAG [GTGCAC_negctrl_site583]	9
AAAAATTCTTGGCGCACACACTTTAAAAATTAAAAA [CACACA_site4498]	9.37
TTATATTTTCAGAATAGTACACATATATACATATAT [XGTACX_site2519]	9.19
GATCATTTAAAATAAGTAATATTTTTTTTACTTTTG [TGCATGCA_negctrl_site602]	8.98
TTATAAAAGAAAAAAAAAAAAAAAAAAAAAAAAAAA [CACACA_negctrl_site1006]	8.47
TATATATTATATATATGTACATATTGTTGTGTATAT [XGTACX_site767]	9.41
TTTATAATTTATATCACACATATATCTGTAATAAAT [CACACA_site5048]	9.13
ATCTCTGTAAAGATCACACATATATTTTTGTTATAT [CACACA_site5094]	9.36
CATATATGTTATATTTAACACACATATAAGGTACAT [CACACA_site8105]	9.39
CAGCTCTTAAAAATTACACACATATACACATATATA [CACACA_site9073]	9.55
TTATTACACACATATGTGCACATATAAAAGTACACG [GTGCAC_site9581]	9.42
TTTCTAGTTACAAGAGTGCATAATATATAAAAATAA [GTGCAC_site9874]	9.03
TATATATATATATATACACACATTTTTAATGATAAA [CACACA_site2695]	9.29
TATAAATACAATTCACAAGAGATCATGTATCAAACC [CACACA_negctrl_site1219]	9.4
ATATAATAAATATGTTGTACTATAAAAAATAGCCAT [XGTACX_site4710]	9.37
TTCCAAAATTGCATTTGTACCCAAAAAATGTATACG [XGTACX_site7680]	9.07

Sequence	gcPBM binding intensity (ln)
GTAAGTTTGAATACACGTACAAATTTATTAAAGTCC [XGTACX_site6722]	9.28
AGATATTAAAACGTTACACACATTTATATATCTTCT [CACACA_site908]	9.69
ATCAGTCGGCAGGACAGTACACAGTAGCCAGGAAAT [XGTACX_site2003]	9.32
GCTTTTTATTTTTACCGTACATTATATATGTATATA [XGTACX_site808]	9.69
ATATTATTAATTTATAGTACTCATTTTTTTTTTTTT [XGTACX_site3536]	9.22
ATATATATATTTGTGTGTACATATTAATTTGTATGA [XGTACX_site4047]	9.64
AACGCGAACAATTTATAGATAACTTTTAATTATTAT [GTGCAC_negctrl_site179]	9.2
TATATATATATAAACTGTACTATTTTATGTTAAAAG [XGTACX_site3630]	9.14
ATTTAATACAAATACACACACAAATATATACATATA [CACACA_site3747]	9.95
AATATATATATAGGATGTACACATAATTCAAATACA [XGTACX_site6368]	9.52
ATACATTTTTGTAAAAGTACATATACATGCCCCCTT [XGTACX_site1367]	9.53
ATGGTATATCCAAATAAACACACGTAAATACATAAA [CACACA_site1682]	9.45
TTTAGCCAATTTTTAAAGTTTAAAAAAGAAAAAAGA [CACACA_negctrl_site118]	8.72
TATTAAAAATACATATGTACTCATAGCATAAAACAT [XGTACX_site8686]	9.35
CAAATGTAGAAAATGTGTACATAAAAAAAAAAAAAA [XGTACX_site8276]	9.19
AGTCAATTTTGTGTGTCAACATTTATATAAAGAATG [TGCATGCA_negctrl_site400]	9.39
TGTGAAAATTATGGGGCATGCAATACTTTAAAAATA [TGCATGCA_site653]	9.3
TTTTGGCTGATCAGATTTAACAAAAAAAAAAAAAAA [CACACA_negctrl_site671]	8.58
CAAATATATATTTTCTGTACAAATACAATTAATACT [XGTACX_site2694]	9.13
CCTTCAATTTACATAACACACATTTAACCATAATAA [CACACA_site2394]	9.37
GACACCTGCATGAAAGTGCAAAATAGAAAAGGAACA [GTGCAC_site9593]	9.31
TTACCTCTTTGAAATATACACACTAAACATATCAAC [CACACA_site2455]	9.4

Sequence	gcPBM binding intensity (ln)
AAGGAATAATAATAAATGTAAAGAAAAGCATACTGA [CACACA_negctrl_site36]	9.5
AAATACCTTATATATACACACTATGTTTTTCTTTTT [CACACA_site4792]	9.63
AACACGCACAGACACACACACAAAAATGATTAAAAA [CACACA_site7195]	9.67
AAAAGAAGAAACAAAACACACACAGTCTTCTTTTCT [CACACA_site9015]	9.81
TTTATGAGGTTACTATGTACGCAAATTATGTAATAA [XGTACX_site325]	9.09
ATTTGTGTTATTCGAAGTACGGATCATTTGAAATAA [XGTACX_site2510]	9.1
TCAAATTATTAAAATACACACATATTATATATATAT [CACACA_site2530]	9.25
AGCAATTTGGGGTGTACACACACCTTATTTAAATTA [CACACA_site1157]	9.35
TCGAACGTATCATGTGTACACACAAATTGTTTTTTT [CACACA_site8623]	9.69
GTATAAAAGTAACTAGTGCATTACATATGAATAAAA	9.33
CCTTGCCCCAGGAGTTCACACACATAATAGATTGTC [CACACA_site8138]	9.67
AGATATTTTTCTTAAGTACACACTAATTAGAAACTA [CACACA_site7897]	9.18
TTTTTATTTTAAAAGAATAATTATCTAATATCTATA [CACACA_negctrl_site371]	8.82
TATTTTTAACAGTGCACACATAACTTAATTATATGT [CACACA_site2194]	9.3
GTGCATAAATCATACACACACACATATATATATATA [CACACA_site2423]	9.96
ATAAAAATAAAAAAAACACACATACCTTATTTTTGT [CACACA_site5452]	9.73
GAAAGAAAATATTAAGTGCATATTTTAATGATACAA [GTGCAC_site9712]	9.19
ATTTTCCATATATTTTGTACATATGTATATTTTCCC [XGTACX_site7795]	9.61
TATAAAAAATTATGTTGTACGTAATATAAAATTTGT [XGTACX_site7122]	9.24
AATCAAAATAAATTAACACACAATTTTAATATTGTT [CACACA_site10]	9.17
AAATATAAATGGTAATACACATACACACACACATAC [XGTACX_negctrl_site459]	10.2
TATATCTCTTTATTCACACATACGTTTTAAAATAAT [CACACA_site5542]	9.27
